# Reference: the supplement of paper PMC11417369
# This is one part of the list.
# Test system: PfHDP1 homeodomain (GST-tagged)
# Assay: gcPBM binding intensity (ln(normalized median fluorescence intensity)); higher = stronger DNA binding
# Summary of the method: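 An Agilent 4 × 180k array carrying primer-extended double-stranded 36-bp intergenic genomic probes and negative controls received GST-tagged P. falciparum DNA-binding domains expressed in E. coli, about 25 μg on average, for 1 h. The binding buffer contained 1× PBS, 1% milk, 0.2 mg/ml BSA, 0.5% salmon testes DNA and 0.03% Triton X-100. Binding intensity is the top Masliner-normalised natural-log median intensity across replicate spots of either probe orientation, read after Alexa488 anti-GST antibody staining and a 488 nm scan.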
row,Sequence,gcPBM binding intensity (ln)
1,TTTTTTATAAATCAAATGAAAAATAAACTATTCAGA [CACACA_negctrl_site1568],5.88
2,ATACATATAAAAAAGTGTACATATTAAAATAAGTAT [XGTACX_site1310],6.24
3,TCATACAAACCTATTTGTACATAAGTATAATATATA [XGTACX_site4284],6.32
4,AATGCAAATAATAAAACACACAAAAAAAAGAAAAAA [CACACA_site1184],6.34
5,ATATCCGTTCAAAGATGTACATATATATTCTATAGA [XGTACX_site5354],6.96
6,ATTTATGTTATATATACACACACAAAAGAAAAAAAA [CACACA_site8977],6.89
7,TTTTTGTATGCTTCCCGATTACATTATGTTGTAAAT [CACACA_negctrl_site227],7.01
8,TATATATATATATATACACACATATACATATTGTTT [CACACA_site3499],9.37
9,TCCTACATATAAAAATGTACCCATTGTTTTTTTTTT [XGTACX_site7205],6.09
10,TTGTGTTAACTACCATGTACTTATACATCATAGGAA [XGTACX_site6627],6.28
11,AATGTATATAGAAACATGCACACGTGGTTGTATATA [CACACA_site3278],7.97
12,ATTTCAAATTAATTTACACACTTCATACTAAAAGAC [CACACA_site3176],6.91
13,TTGATATATAATAATACACACTTACATAATTAATTA [CACACA_site4320],6.68
14,AAGTATTACAACCACACACACACCTATATATCATAG [CACACA_site7878],6.71
15,ATCTTTTACGAATACACACACATAAAGAAAAAAAAA [CACACA_site1331],6.64
16,ATTATATTCTCCTTCACACACAAAAATATTTCATCA [CACACA_site5326],6.91
17,TTACGATTAAATATAACACACAACATATTTTTAATA [CACACA_site2967],6.53
18,AAGGATATGAAAAGTAGTACAAAATTTAGAACACCC [XGTACX_site4758],7.19
19,CACAAAAATTTATACACACACATATATAATATATAT [CACACA_site152],6.89
20,TCTTAAAATCGGAAATGAAATAAAGTTTACAATATG [TGCATGCA_negctrl_site553],6.28
21,TGATTCTGTCATGGTGCACACCAGAACCATTATAAA [CACACA_site1965],9.59
22,TGTTTAATCACATGTTTGCACTTTCCTTTTGTAAAT [GTGCAC_site9893],8.65

row,Sequence,gcPBM binding intensity (ln)
1,ATATATAAATATATATGTACACACATATACATGTTG [XGTACX_site6653],6.57
2,AATTATTCTATATATTGTACATGTTTGTTTTTTTTT [XGTACX_site3130],6.61
3,CCAAAATACATTAAACGTACATGTCCTAATAAGATA [XGTACX_site21],6.78
4,TTCTTATATATATACACACACAAAATATCTACAATG [CACACA_site736],6.97
5,TTGTTTTTATAAATATTATTACAATGAAAAAAAAAA [TGCATGCA_negctrl_site185],6.35
6,TAATATATATTATTATGTACATATATTGATTCCTTG [XGTACX_site6830],6.97
7,TATTTATTAATATGTACACACATCAACCATATTAAC [CACACA_site7001],6.8
8,TTTGAGTGCACATACACACAGACATACATTTAAATA [CACACA_site3403],10.4
9,ATGTTTAATTTTTTTTTGTCCCTATAGAAGTGTCAA [CACACA_negctrl_site1103],6.49
10,AAAACAAACAGACACACACACATATATATATATATA [CACACA_site3655],9.44
11,AATGAATAAATAAACACACACACATATATAAATATG [CACACA_site6160],6.94
12,ATATAAATATGTTCTGCACACAAATAAGTGTTTGAA [CACACA_site9291],8.49
13,TTTAAAATTTTTTTTTTTTTTTTTTTTTTTTTTTAT [TGCATGCA_negctrl_site213],5.81
14,ATAACCTAATAATACACACACATGAATATATAGAAT [CACACA_site963],6.72
15,AAAAAAAAAAAAAAAAGTACGTATCAAAGCATCAAA [XGTACX_site880],6.5
16,AGGTTATAAATAAATACACACATACAAAAATATGAC [CACACA_site4773],6.44
17,AATCTGATCTTTTAAAGTACACAAAAAAAAAAAAAA [XGTACX_site115],6.56
18,GTTTAACTGTTTTATACACACAATGTATACAATAAA [CACACA_site2959],6.88
19,CATATATATATATGTACACACATTAATAAAAAAAAA [CACACA_site3230],6.49
20,AATGAACACCTAAAATGTACGTACAAATATATTTTA [XGTACX_site7067],6.85
21,ATAAATAATAAGGTTACAACAAACACACAAAGGAAT [XGTACX_negctrl_site611],7.27
22,GGTTATAACCCACATGCACACGTAAATAAATATTAT [CACACA_site5992],8.74

row,Sequence,gcPBM binding intensity (ln)
1,TGTCCAATTTATTGTGCACACCTCAAAAGTGGGTAA [CACACA_site3826],11.1
2,TAAAAAAAAAAGTATACACACTTCTTAATGTCAACA [CACACA_site4818],5.98
3,ATGATGGAATATTCTACACACAATTAATAAACAAAC [CACACA_site1045],6.98
4,ATATAATCCTTTCAAACACACAAAATATAATTAATA [CACACA_site1829],6.66
5,TTTTTTTATAAATTCACACAAAATATAATATTAAAA [CACACA_site4766],6.17
6,CTATATATTTTTCATTGTACACAAATTAAAGAAAAA [XGTACX_site8385],6.61
7,AATGTCATCATATTCATATATATTTATTTCTTTTTG [GTGCAC_negctrl_site500],6.38
8,TTGTATTGTATATGCACACATAGAACACTTTTTTTT [CACACA_site4133],8.44
9,TAAATTTTGTTTAGCACACACACATACATACATACA [CACACA_site3155],7.46
10,TTGATATACTATGACACATGCAAATAAAACATTATA [TGCATGCA_site535],6.7
11,TAATCATTTTTAAATTGTACAATTTATATAATAAGT [XGTACX_site6081],6.52
12,TATATCTGTATCATTACACACATGTATACTTATTTG [CACACA_site6134],6.89
13,TATTTTTTAAGTGAACATTTGTTATTATATTCTTAT [GTGCAC_negctrl_site172],6.42
14,GATGATACACAGGTGTTGCACTTAAATGCAGTTCTT [GTGCAC_site9627],8.13
15,ATTAAAATAGAAAAAAAAAAAAAAAAAAAAAAAAAA [CACACA_negctrl_site1117],6.36
16,TATGGGGAACTATAATGTACGTATTCCTCATATATA [XGTACX_site338],6.3
17,TTTTCAAAATGTTGTACACACAAAAAAAAAAAAAAA [CACACA_site1550],6.43
18,AAAGACTTTTTATGAGCACACACATATATTATGGAG [CACACA_site8254],6.98
19,GATATATAGGTATTTACACACAATGTGAGATCTATA [CACACA_site7575],6.37
20,TGATAATAAGCATACACACACACACTAAAAAAAAAA [CACACA_site6478],6.72
21,ATGATTATACAAAATATACACACGTGGACACAAATA [CACACA_site8304],7.17
22,AGATAAAATAAATACACACACATAAATACGTACAAA [CACACA_site4739],6.94

row,Sequence,gcPBM binding intensity (ln)
1,TTTCTATAATATATATGTACATATATAATATGTCGT [XGTACX_site3676],6.58
2,AGAAGATTAAAAATTGCACACAAAAATATATTTTCT [CACACA_site8359],9.88
3,TACCTATATACATACACACACATATAACCAATGTAG [CACACA_site7096],6.94
4,TAATAAATAAAAACATGTACATATATACATATATGT [XGTACX_site485],6.35
5,TAAACTTTCCAGTGTTGTACATAATAATTATTATAT [XGTACX_site8896],6.55
6,AAAGATATGAAATATACACACTTCTTTGGTATTATT [CACACA_site6352],6.22
7,ATTCATTCATATGTTACACACACACGCCCACATAAA [CACACA_site7513],7.17
8,TAAAAAAAGGTTATTGGTACACACATATGTATATAT [XGTACX_site1029],6.56
9,TTATATATATATATATATATTTACATAATAATATGT [GTGCAC_negctrl_site388],7.08
10,AGTTTGTCAATCAACACACACCTATTTATTATATAT [CACACA_site6030],6.42
11,TACAAGCCCAATTCAAGTACATATATATATATATAT [XGTACX_site5569],9.41
12,TATTTATGTATATGCTGTACGCATTTGTGAAACATA [XGTACX_site4688],6.63
13,AACCAATTAGAAGGATCCAGAACTTATTTGTTTTTA [CACACA_negctrl_site1744],5.85
14,AGAAAATATACAAAACGTACTTATATATTATATCTA [XGTACX_site3104],5.97
15,AAAAAAAAAAAAGAAACACACATATATATATATATA [CACACA_site140],9.3
16,GTTTGATTAAACTTGACACACATATATATAAATATA [CACACA_site1784],6.7
17,GTTAGAGGGAAAAAGAGTACATATATGTGGATAATT [XGTACX_site2064],6.96
18,TCATATATCATAACAGTGCAAAAAAAAAAAAATTAT,8.69
19,TATGAAAGAAATAGTACACACATAAACATTTGTAAA [CACACA_site2783],6.22
20,TAATATTCAATTATACGTACACATATATATATATAT [XGTACX_site4245],9.22
21,GTTGCGTATATATACACACATACATATATATATATA [CACACA_site1607],9.15
22,TTATATAATAAAAATTGTACATATTATATATATATT [XGTACX_site3427],6.19
